Data: publication PMC12820563, “FoxP3 forms a head-to-head dimer in vivo and stabilizes its multimerization on adjacent microsatellites”
This is one part of the list.

target: T1, MBP-FoxP1dN (Mus musculus, UniProt P58462 326-579); assay: PD-seq (MBP pull-down with sequencing); 20 mM Tris-HCl pH 7.5, 100 mM NaCl, 1.5 mM MgCl2, 0.4 uM protein, 0.1 uM dsDNA library, 30 min, room temperature, amylose pull-down; high values mean tight binding; conditions: protein: recombinant; tags: His6-MBP; chain copies: 2; dsDNA, one strand shown
T1 sequence: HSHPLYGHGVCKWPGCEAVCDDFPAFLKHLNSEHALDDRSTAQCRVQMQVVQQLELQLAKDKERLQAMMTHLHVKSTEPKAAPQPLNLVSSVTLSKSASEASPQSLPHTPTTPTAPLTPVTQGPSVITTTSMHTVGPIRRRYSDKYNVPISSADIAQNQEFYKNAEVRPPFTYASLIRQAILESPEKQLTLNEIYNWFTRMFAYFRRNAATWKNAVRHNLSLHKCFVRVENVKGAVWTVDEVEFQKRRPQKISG
Summary of the method: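 Binding is reads-per-million enrichment of pull-down over input, with replicates pooled. It comes from 30 min room-temperature incubation in Tris pH 7.5 buffer with NaCl and MgCl2 of 0.4 µM His6-MBP-tagged, N-terminally truncated mouse FoxP3 or FoxP1 fragment from E. coli with 0.1 µM Klenow-filled degenerate double-stranded DNA library, followed by amylose resin capture, three washes and Illumina sequencing of the released DNA.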

**Q.** “GATGATTGTTCTCCCAGCTGATGAATTGCCATGTTCGAGTAAACAAATTTTCCTAATCTTTCTGTTCAAGCGCCATCTAC” was tested. Which binding signal did it give?
**A.** Its binding signal is 1.01 RPM ratio (pull-down/input).

**Q.** With “GATGATTGTTCTCCCAGCTGATGAATTTACCCTTTCGAGTAAACAAATTTTCCTAATCTTTCTGTTCAAGCGCCATCTAC” as the sequence, how does the binding signal read?
**A.** The binding signal was 1.19 RPM ratio (pull-down/input).

**Q.** With “GATGATTGTTCTCCCAGCTGATGAATTTATTCAATCGAGTAAACAAATTTTCCTAATCTTTCTGTTCAAGCGCCATCTAC” as the sequence, how does the binding signal read?
**A.** The binding signal was 1.26 RPM ratio (pull-down/input).

**Q.** Which binding signal does the source give for “GATGATTGTTCTCCCAGCTGATGAATTGCCGTTATCGAGTAAACAAATTTTCCTAATCTTTCTGTTCAAGCGCCATCTAC” here?
**A.** Its binding signal is 1.07 RPM ratio (pull-down/input).

**Q.** Which binding signal does the source give for “GATGATTGTTCTCCCAGCTGATGAATTGGGGGGTTCGAGTAAACAAATTTTCCTAATCTTTCTGTTCAAGCGCCATCTAC” here?
**A.** Its binding signal is 0.815 RPM ratio (pull-down/input).

**Q.** How did the binding signal turn out when “GATGATTGTTCTCCCAGCTGATGAATTCCGTCCGTCGAGTAAACAAATTTTCCTAATCTTTCTGTTCAAGCGCCATCTAC” was run?
**A.** The binding signal was 0.773 RPM ratio (pull-down/input).

**Q.** Which binding signal does the source give for “GATGATTGTTCTCCCAGCTGATGAATTCACATGATCGAGTAAACAAATTTTCCTAATCTTTCTGTTCAAGCGCCATCTAC” here?
**A.** The binding signal was 0.897 RPM ratio (pull-down/input).

**Q.** “GATGATTGTTCTCCCAGCTGATGAATTGGGGAGTTCGAGTAAACAAATTTTCCTAATCTTTCTGTTCAAGCGCCATCTAC” was tested. Which binding signal did it give?
**A.** The binding signal was 0.839 RPM ratio (pull-down/input).

**Q.** For “GATGATTGTTCTCCCAGCTGATGAATTCATCTGTTCGAGTAAACAAATTTTCCTAATCTTTCTGTTCAAGCGCCATCTAC”, which binding signal is on record?
**A.** Its binding signal is 0.868 RPM ratio (pull-down/input).

**Q.** Which binding signal does the source give for “GATGATTGTTCTCCCAGCTGATGAATTCGGGCGTTCGAGTAAACAAATTTTCCTAATCTTTCTGTTCAAGCGCCATCTAC” here?
**A.** The binding signal was 0.839 RPM ratio (pull-down/input).

**Q.** How did the binding signal turn out when “GATGATTGTTCTCCCAGCTGATGAATTTTTTAACTCGAGTAAACAAATTTTCCTAATCTTTCTGTTCAAGCGCCATCTAC” was run?
**A.** Its binding signal is 1.07 RPM ratio (pull-down/input).

**Q.** With “GATGATTGTTCTCCCAGCTGATGAATTATCATCGTCGAGTAAACAAATTTTCCTAATCTTTCTGTTCAAGCGCCATCTAC” as the sequence, how does the binding signal read?
**A.** Its binding signal is 1 RPM ratio (pull-down/input).

**Q.** Which binding signal does the source give for “GATGATTGTTCTCCCAGCTGATGAATTTTATTTTTCGAGTAAACAAATTTTCCTAATCTTTCTGTTCAAGCGCCATCTAC” here?
**A.** The binding signal was 1.96 RPM ratio (pull-down/input).

**Q.** Which binding signal does the source give for “GATGATTGTTCTCCCAGCTGATGAATTAAAATCGTCGAGTAAACAAATTTTCCTAATCTTTCTGTTCAAGCGCCATCTAC” here?
**A.** Its binding signal is 0.916 RPM ratio (pull-down/input).

**Q.** Which binding signal does the source give for “GATGATTGTTCTCCCAGCTGATGAATTCGGCCAATCGAGTAAACAAATTTTCCTAATCTTTCTGTTCAAGCGCCATCTAC” here?
**A.** Its binding signal is 0.877 RPM ratio (pull-down/input).

**Q.** For “GATGATTGTTCTCCCAGCTGATGAATTCAAGCACTCGAGTAAACAAATTTTCCTAATCTTTCTGTTCAAGCGCCATCTAC”, which binding signal is on record?
**A.** The binding signal was 0.915 RPM ratio (pull-down/input).

**Q.** How did the binding signal turn out when “GATGATTGTTCTCCCAGCTGATGAATTTTATAGGTCGAGTAAACAAATTTTCCTAATCTTTCTGTTCAAGCGCCATCTAC” was run?
**A.** Its binding signal is 0.796 RPM ratio (pull-down/input).

**Q.** For “GATGATTGTTCTCCCAGCTGATGAATTACGCAAATCGAGTAAACAAATTTTCCTAATCTTTCTGTTCAAGCGCCATCTAC”, which binding signal is on record?
**A.** Its binding signal is 1.28 RPM ratio (pull-down/input).

**Q.** Which binding signal does the source give for “GATGATTGTTCTCCCAGCTGATGAATTGCTTAGGTCGAGTAAACAAATTTTCCTAATCTTTCTGTTCAAGCGCCATCTAC” here?
**A.** Its binding signal is 1.02 RPM ratio (pull-down/input).

**Q.** Which binding signal does the source give for “GATGATTGTTCTCCCAGCTGATGAATTATCAAATTCGAGTAAACAAATTTTCCTAATCTTTCTGTTCAAGCGCCATCTAC” here?
**A.** The binding signal was 1.16 RPM ratio (pull-down/input).

**Q.** For “GATGATTGTTCTCCCAGCTGATGAATTTATCTCCTCGAGTAAACAAATTTTCCTAATCTTTCTGTTCAAGCGCCATCTAC”, which binding signal is on record?
**A.** Its binding signal is 1.08 RPM ratio (pull-down/input).

**Q.** Which binding signal does the source give for “GATGATTGTTCTCCCAGCTGATGAATTTTGTTAATCGAGTAAACAAATTTTCCTAATCTTTCTGTTCAAGCGCCATCTAC” here?
**A.** Its binding signal is 1.21 RPM ratio (pull-down/input).

**Q.** Which binding signal does the source give for “GATGATTGTTCTCCCAGCTGATGAATTAAGTCGGTCGAGTAAACAAATTTTCCTAATCTTTCTGTTCAAGCGCCATCTAC” here?
**A.** Its binding signal is 0.85 RPM ratio (pull-down/input).

**Q.** For “GATGATTGTTCTCCCAGCTGATGAATTGGTGGTCTCGAGTAAACAAATTTTCCTAATCTTTCTGTTCAAGCGCCATCTAC”, which binding signal is on record?
**A.** The binding signal was 0.826 RPM ratio (pull-down/input).

**Q.** For “GATGATTGTTCTCCCAGCTGATGAATTGGGAAGCTCGAGTAAACAAATTTTCCTAATCTTTCTGTTCAAGCGCCATCTAC”, which binding signal is on record?
**A.** Its binding signal is 0.761 RPM ratio (pull-down/input).

**Q.** Which binding signal does the source give for “GATGATTGTTCTCCCAGCTGATGAATTTATAGTCTCGAGTAAACAAATTTTCCTAATCTTTCTGTTCAAGCGCCATCTAC” here?
**A.** Its binding signal is 0.973 RPM ratio (pull-down/input).

**Q.** For “GATGATTGTTCTCCCAGCTGATGAATTTTTCCGCTCGAGTAAACAAATTTTCCTAATCTTTCTGTTCAAGCGCCATCTAC”, which binding signal is on record?
**A.** Its binding signal is 0.852 RPM ratio (pull-down/input).

**Q.** For “GATGATTGTTCTCCCAGCTGATGAATTTGAAGCATCGAGTAAACAAATTTTCCTAATCTTTCTGTTCAAGCGCCATCTAC”, which binding signal is on record?
**A.** Its binding signal is 1.09 RPM ratio (pull-down/input).

**Q.** With “GATGATTGTTCTCCCAGCTGATGAATTACGTTACTCGAGTAAACAAATTTTCCTAATCTTTCTGTTCAAGCGCCATCTAC” as the sequence, how does the binding signal read?
**A.** The binding signal was 1.1 RPM ratio (pull-down/input).

**Q.** With “GATGATTGTTCTCCCAGCTGATGAATTTTCACTATCGAGTAAACAAATTTTCCTAATCTTTCTGTTCAAGCGCCATCTAC” as the sequence, how does the binding signal read?
**A.** Its binding signal is 0.987 RPM ratio (pull-down/input).

**Q.** For “GATGATTGTTCTCCCAGCTGATGAATTTGGCATTTCGAGTAAACAAATTTTCCTAATCTTTCTGTTCAAGCGCCATCTAC”, which binding signal is on record?
**A.** Its binding signal is 1.09 RPM ratio (pull-down/input).
